Laboratory results: patent US11542275B2, “Substituted imidazolidin-2-one derivatives as PRMT5 inhibitors” (Aurigene Discovery Technologies Limited, priority 2018, dated 2023)

Biological target: PRMT5/MEP50 Complex (Homo sapiens (Human), UniProt O14744)
Assay: PRMT5 inhibition based on TR-FRET assay
Type: biochemical
Details: 32 nM PRMT5:MEP50 complex, 50 nM Histone-H4 peptide, 1 μM SAM, 90 minutes at room temperature
Excerpt: Protein arginine methyltransferase 5 (PRMT5) is a type II arginine methyltransferase that catalyze mono- and symmetric demethylation on arginine residues of histone or non-histone proteins in presence of S-adenosylmethionine (AdoMet or SAM) a cofactor responsible for donating the methyl group. PRMT5 is reported to be overexpressed in several human cancers. To identify compounds that inhibit the PRMT5 and decrease its activity, a TR-FRET based assay has been established. Time-resolved fluorescence resonance energy transfer (TR-FRET) HTS assays are homogeneous proximity assays where the interaction of two dye-labeled binding partners is detected by the energy transfer between a donor and an acceptor dye, and the subsequent light emission by the acceptor dye. PRMT5 catalyzes Histone H4 peptide which is biotin tagged to the Lysine amino acid at carboxyl end, in presence of S-adenosyl-1-methionine (SAM) to methylate the peptide. The antibody specific to mono methylated H4 peptide (H4R3) with Ig conjugate binds to the methylated peptide, indirectly binding to the Europium lanthanide. SureLight Allophycocyanin-Streptavidin binds to the biotin tag of the peptide, therefore accepting the energy transferred from the Europium lanthanide. This energy transfer between Europium to SureLight Allophycocyanin is a direct measure of the activity/inhibition of the PRMT5 enzyme.
Assay buffer: 20 mM BICINE (pH 7.6), 25 mM NaCl, 2 mM DTT, 0.01% Tween-20 and 0.01% BSA.
The compound dilutions were prepared as 7.5% DMSO stock solutions in assay buffer. To 2 μL (7.5×) of test compound, 5 μL of PRMT5 enzyme prepared in assay buffer (Final concentration of 32 nM in 15 μL reaction volume) was added and allowed for 30 minutes pre-incubation time in a white polystyrene 384-well plate at room temperature. […] The plates were then read on Victor-3 with Excitation at 340 nm and Emissions collected at 615 and 665 nm in TR-FRET protocol. […]

| SMILES | IC50 [µM] |
| --- | --- |
| O=C1N(Cc2ccc(C3CCN(Cc4nn[nH]n4)CC3)cn2)CCN1C[C@H](O)CN1CCc2ccccc2C1 [Compound 99, (R)-1-((5-(1-((2H-tetrazol-5-yl)methyl)piperidin-4-yl)pyridin-2-yl)methyl)-3-(3-(3,4-dihydroisoquinolin-2(1H)-yl)-2-hydroxypropyl)imidazolidin-2-one] | 0.119 |
| O=C1N(Cc2ccc(C3CCOCC3)cn2)CCN1C[C@H](O)CNC1Cc2ccccc2C1 [Compound 89, (R)-1-(3-((2,3-dihydro-1H-inden-2-yl)amino)-2-hydroxypropyl)-3-((5-(tetrahydro-2H-pyran-4-yl)pyridin-2-yl)methyl)imidazolidin-2-one] | 0.015 |
| CN(C)C(=O)C1CCN(c2ccc(CN3CCN(C[C@H](O)CN4CCc5ccccc5C4)C3=O)nc2)CC1 [Compound 97, (R)-1-(6-((3-(3-(3,4-dihydroisoquinolin-2(1H)-yl)-2-hydroxypropyl)-2-oxoimidazolidin-1-yl)methyl)pyridin-3-yl)-N,N-dimethylpiperidine-4-carboxamide] | 0.119 |
